Measurements published in patent US20240228645A1 (DRAGONFLY THERAPEUTICS, published 2024).
Numbering of substitutions follows the chain as printed. Values belong to the binder of their own block, whether it stands above or below them.

Columns and labels:
[1] = biological target: T1, human BAFF-R expressed on cells (hBAFF-R-CHO isogenic CHO cells; BAFF-R+ cancer cells) (human, UniProt Q96RJ3 1-184); assay: cell-based or functional assay
[2] = biological target: T2, cynomolgus monkey BAFF-R expressed on CHO cells (cBAFF-R-CHO) (cynomolgus monkey); assay: cell binding assay, cBAFF-R+ cells
T2 construct: whole, on cells; also called cynoBAFF-R
Excerpt: (§1) Selected clones from the off rate challenge studies described above were produced as multispecific binding proteins comprising an scFv of the respective binders, and two non-BAFF-R binders, expressed in Expi293 cells, and characterized by binding to hBAFF-R expressing cells and cynomolgus BAFF-R expressing cells, ability to lyse BAFF-R expressing cancer cells in a KHYG-1-CD16aV mediated cytotoxicity assay, ability to block BAFF-BAFF-R interactions, thermostability (differential scanning fluorimetry, DSF) and hydrophobicity (HIC) (results are summarized in Table 12). Binding affinity of AB1080, AB1081, and AB1085 to BAFF-R⁺ cells was improved as compared to the parental clones (FIGS. 23A-23B as compared to Table 12). Additionally, binding affinity to cynoBAFF-R was similar to binding affinity to hBAFF-R (FIGS. 23A-23B). Lack of polyspecificity was confirmed by a PSR assay (FIGS. 24A-24B). AB1084 was removed from further study, due to long retention time on HIC and subsequent potential for higher aggregation propensity. […] In addition, a greater than ten-fold improvement in potency was observed as compared to the original AB0369 multispecific binding protein.

[3] = biological target: T1, human BAFF-R expressed on cells …; assay: cell binding assay, hBAFF-R+ cells
Excerpt: as §1

[4] = biological target: T1, human BAFF-R expressed on cells …; assay: cell binding assay, human BAFF-R cells
[5] = biological target: T2, cynomolgus monkey BAFF-R expressed on …; assay: cell binding assay, cynomolgus BAFF-R cells
[6] = biological target: T1, human BAFF-R expressed on cells …; assay: ligand blocking assay; competitor BAFF-biotin on CHO cells expressing human BAFF-R

Cytolysis, EC50 [1]: 0.03 nM | EC50 [2]: 1.36 nM | EC50 [3]: 1.97 nM | EC50 [4]: 2.71 nM | EC50 [5]: 2.36 nM | IC50 [6]: 5.72 nM
B1: AB1080 multispecific binding protein (other, not shown: a dimerising Fc or GST; small tags and cut ends)
VH: EVQLVQSGGGVVQPGRSLRLSCAASGFTFSSYGMHWVRQAPGKCLEWVAVIWYDASNKYYGDSVKGRFTISRDNSKNTLYLQMNSLRDEDTAVYYCARRFTHLRGWYIEDYGLDVWGQGTTVTVSS
VL: EIVLTQSPSSLSASVGDRVTIT[gap - about 80 residues]FGCGTKVEIK
notes: also called AB1080-002; AB1080-003

Cytolysis, EC50 [1]: 0.05 nM | EC50 [2]: > 14 nM | EC50 [3]: > 8 nM
B2: AB1081 multispecific binding protein (other, not shown: a dimerising Fc or GST; small tags and cut ends)
VH: B1 VH with T28A, A55E, K76R, H102N, Y107I
VL: EIVLTQSPSSLSASVGDRVTIT[gap - about 80 residues]FGCGTKVEIK
notes: also called AB1081-002
